Assay results from the supplement of paper PMC10126150.
Values marked as one replicate rest on one cluster of the flow cell; about a third of the high ones do not repeat.

Tested on: ATP
Test: switch fluorescence ratio, 500 uM ATP over buffer (Cy3 cluster intensity, sum of 5 cycles each) (fold (ratio)); higher = stronger signal-on switching upon ATP binding; sequences stand for … in TCGTCGGCAGCGTCAGATGTGTATAAGAGACAGTTTTTTTTTTTTTTTTTTTTTTTTT…TC
Conditions: aptamer strand: ATP DNA aptamer (quencher-CACCTGGGGGAGTATTGCGGAGGAAGG + anchor), 100 nM annealed; ATP concentration: 500 uM; one replicate
Outline: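 After annealing to 100 nM quencher-labelled ATP aptamer, Cy3-labelled switching-strand clusters on a modified Illumina MiSeq flow-cell were imaged in selection buffer. A second image followed after 15 min with 500 uM ATP at 22 °C, and five such buffer/ATP cycles were done, each separated by NaOH stripping and re-annealing. The fluorescence ratio, averaged per switch-domain sequence, is summed target-cycle over summed buffer-cycle Cy3 intensity per cluster, with clusters outside 100-1000 RFU excluded.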
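Further: ATP exposure 15 min at 22 °C before imaging.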

| Sequence | switch fluorescence ratio |
| --- | --- |
| TGCCTTTTGA | 1.05 |
| TCATAAGTTC | 1.01 |
| CATATGAACT | 0.984 |
| TTTGAATCTA | 0.993 |
| AGAAGTACTT | 1.01 |
| CCAGTGGCGG | 0.974 |
| CTTATTGGTT | 1.04 |
| CTGAAGGGG | 1 |
| CCGGGAAAGA | 0.975 |
| ATCAATGGGG | 0.969 |
| CAGGTAAAAA | 0.985 |
| CGCCGTTCAA | 1.07 |
| ATCGACCAGT | 1 |
| TGAAAACCGG | 1 |
| ATGAATTCCC | 0.998 |
| GCTGTACATC | 1.02 |
| AGCATTTTGC | 1.01 |
| TTCTATAGAC | 1.03 |
| TATGTGTGAG | 0.989 |
| CCGAAGGCCT | 0.884 |
| TAGCTGTTGG | 0.988 |
| CATACGGTG | 1.07 |
| GAGAACTCGC | 0.875 |

| Sequence | switch fluorescence ratio |
| --- | --- |
| GTTCCACACA | 1.01 |
| TTTTAACGGT | 1.01 |
| TCGACTCTGT | 1 |
| ACTTGGAG | 1.05 |
| TTCTTAAAGT | 0.989 |
| TCGCTTTTTC | 1.1 |
| GATGAACTTT | 1 |
| TTAAGCAGGA | 1 |
| TGTCGCCAGG | 1.01 |
| GTAATGGTAA | 1 |
| ATGATTGGGG | 0.974 |
| TGGTCGACC | 1.02 |
| CGCTGATTGC | 1.25 |
| TCTGTTTAAG | 0.94 |
| CGGTTAAAAG | 0.983 |
| GCATCAAGAC | 2.48 |
| TTTGTTCGCT | 1.01 |
| GTACGCCTTT | 0.971 |
| TTCGCCTGCG | 0.953 |
| TGCAGGGGAC | 1.06 |
| TGTAGTATGG | 0.985 |
| CTCTATGCTC | 1.17 |
| GTGGCCAAAA | 1 |

| Sequence | switch fluorescence ratio |
| --- | --- |
| TATTGAATA | 0.935 |
| AAAACCTCCG | 1.44 |
| TATGATAGTC | 0.991 |
| TGCTTGGT | 0.994 |
| GGTTGTGAGC | 0.969 |
| TATTGGACGG | 1.1 |
| TGGGAAAAGC | 1 |
| TATTACATT | 0.985 |
| CAACTTTGTG | 1.02 |
| TATCTCGTGC | 1.03 |
| ACTAAGCGGA | 1.07 |
| TTTGCGTTCC | 1.44 |
| TATTATAT | 1.02 |
| GTTACAGGA | 0.945 |
| TGTACTGGG | 0.982 |
| AGGCGCTCCA | 0.993 |
| TTGTGATTCG | 1.01 |
| CGCTCATCGC | 1.06 |
| CTGCTGGTGT | 1.08 |
| TTGTGACTTT | 1.05 |
| GTCTGAAGTG | 0.981 |
| TGGCAATCTT | 1.02 |
| AAAAGTGAGG | 1 |

| Sequence | switch fluorescence ratio |
| --- | --- |
| CCATCAATTG | 1.01 |
| CGGATAACGG | 0.947 |
| TGATTCCATG | 0.987 |
| GTTTGTATCA | 1.03 |
| GCATGTGTCT | 0.977 |
| CCAACCGGGC | 1.63 |
| GCGCGCTTTA | 1.22 |
| CCAAATATGG | 1.04 |
| GCTAATGGTA | 1.01 |
| TTGGTACCTG | 0.998 |
| TTTGCTGGCA | 0.964 |
| CATAAATGTG | 0.984 |
| AAATCGCGAA | 1 |
| AGCGAGTACG | 1.02 |
| GGCACTTTAT | 1.03 |
| CGCGAAGCAC | 1.03 |
| CCTGTTGTTA | 0.989 |
| GTTGAGGACG | 1.05 |
| TGTTTAATC | 1.03 |
| ATACGGATAG | 1.06 |
| AGTGCGATAA | 1.19 |
| TTGCCCTTGC | 1.05 |
| AAGTGATCAA | 0.994 |

| Sequence | switch fluorescence ratio |
| --- | --- |
| GATTTGAAGA | 0.964 |
| CTACCTGCTT | 0.987 |
| AACGTCGTTA | 0.979 |
| TGTATGGATA | 0.999 |
| ATCTTTACGC | 0.996 |
| GAACGCATT | 2.81 |
| CGGGTTTCTT | 0.99 |
| AAATATGGT | 1.03 |
| GCGTTGACCT | 1.12 |
| CGATAAGTGA | 0.995 |
| ACATCTAATA | 1.05 |
| TAGAGGCATT | 1.31 |
| TTTATGACCA | 0.935 |
| GTTTATAGCT | 1.03 |
| GAAAGACAGC | 1.06 |
| TAAGTACATG | 1.19 |
| CTAGTGGGTA | 0.956 |
| TCAGGTGAAG | 1.14 |
| GGGGGACCTG | 0.953 |
| CTACTCGGGG | 1.03 |
| ACAGGATCT | 0.979 |
| ATTTGCGGGT | 0.986 |
| ACATATGTCG | 1.01 |

| Sequence | switch fluorescence ratio |
| --- | --- |
| CCATTCTATT | 0.975 |
| ACTGTTCATC | 0.999 |
| GTCACCCGCT | 1.07 |
| CATTGTAAT | 1.01 |
| TAGGTACGGT | 1.04 |
| CGGAGTTCCG | 0.945 |
| ATGGAGTGTA | 0.997 |
| ATCTAGGTTG | 0.998 |
| ATTGTTCAA | 0.998 |
| TAGAGCAGCA | 1.01 |
| TGTGCCATGA | 0.983 |
| ATTGTGTTGG | 1.02 |
| AGGGCCTAAC | 1.01 |
| ATAATTGTAG | 0.947 |
| GCTAAACGGC | 1.09 |
| TGCAGACGAA | 1 |
| ACAGGCGCCT | 1 |
| GCACTAAATT | 1.03 |
| TAAGTTGGGC | 0.816 |
| CGGCAGCGCT | 1.02 |
| TACGTCTTGC | 1 |
| CACGTTTGTG | 0.989 |
| TTTTTAA | 0.966 |

| Sequence | switch fluorescence ratio |
| --- | --- |
| AGATTGCGGG | 0.958 |
| ATGTTAAAAA | 1.04 |
| GATATCTTA | 1.01 |
| GGACGAGTAT | 1.04 |
| ATCCCCGGG | 1.54 |
| CTTAGCGGTG | 0.983 |
| CCTCGGGGTA | 1.01 |
| CATGCAAGTT | 1.02 |
| GCGCGGCCGA | 1.01 |
| TTTCTTGAGG | 0.941 |
| GACATTGTAT | 0.966 |
| CTTCAGATAC | 2.17 |
| ACATGGTGGA | 1.03 |
| GGTGTTCCTA | 0.983 |
| CTAACCCGTT | 1.02 |
| GGTTGTCAAC | 1.02 |
| GCAGGAGGAC | 1 |
| TTCAGCAAAC | 4.01 |
| GCACTATGTT | 0.987 |
| TTTTCCACAA | 1.02 |
